Reference: US10299477B2 (priority 2015, dated 2019)

Columns and labels:
[1] = tested on: Magnaporthe grisea; format: in vivo; details: 250 ppm spray, preventive; control value class
[2] = tested on: Phytophthora infestans; format: in vivo; details: 250 ppm spray (2.5 ml/pot), preventive; 5-10 days after inoculation; control value class
[3] = tested on: Colletotrichum orbiculare; details: 250 ppm spray (2.5 ml/pot), preventive; 6-10 days after inoculation; control value class

SMILES | Test A control value (blast on rice) [1] | Test F control value (late blight on tomato) [2] | Test H control value (anthracnose on cucumber) [3]
CCn1c(-c2c(F)cccc2F)c(-c2ccccc2SCCl)cc(Cl)c1=O [Compound 210] | H (H shows more than 50% of control values) | L (L shows 50% or less of control values) | L (L shows 50% or less of control values)
Cn1c(-c2c(F)cccc2F)c(-c2cc(OCC(F)(F)F)ccc2Cl)ccc1=O [Compound 263] | H (H shows more than 50% of control values) | L (L shows 50% or less of control values) | H (H shows more than 50% of control values)
CCCCOc1cc(F)c(-c2c(-c3cc(OC)cc(OC)c3Cl)ccc(=O)n2C)c(F)c1 [Compound 282] | H (H shows more than 50% of control values) | L (L shows 50% or less of control values) | H (H shows more than 50% of control values)
CCn1c(-c2c(F)cccc2F)c(-c2ccc(Cl)cc2)cc(Br)c1=O [Compound 279] | H (H shows more than 50% of control values) | L (L shows 50% or less of control values) | L (L shows 50% or less of control values)
CCn1c(-c2c(F)cc(F)cc2F)c(-c2cc(Cl)ccc2Cl)ccc1=O [Compound 354] | H (H shows more than 50% of control values) | L (L shows 50% or less of control values) | H (H shows more than 50% of control values)
Cn1c(-c2c(F)cccc2F)c(-c2ccc(Cl)cc2Cl)cc(Cl)c1=O [Compound 348] | H (H shows more than 50% of control values) | L (L shows 50% or less of control values) | L (L shows 50% or less of control values)
CCn1c(-c2c(F)cccc2F)c(-c2ccc(Cl)cc2)cc(Cl)c1=O [Compound 266] | H (H shows more than 50% of control values) | L (L shows 50% or less of control values) | L (L shows 50% or less of control values)
COCCCOc1ccc(Cl)c(-c2ccc(=O)n(C)c2-c2c(F)cccc2F)c1 [Compound 311] | H (H shows more than 50% of control values) | L (L shows 50% or less of control values) | L (L shows 50% or less of control values)
Cn1c(-c2c(F)cccc2F)c(-c2ccc(Br)cc2)cc(Cl)c1=O [Compound 291] | H (H shows more than 50% of control values) | L (L shows 50% or less of control values) | H (H shows more than 50% of control values)
CCN1C(=O)CCC(c2cccc(C(F)(F)F)c2)=C1c1c(F)cccc1F [Compound 283] | L (L shows 50% or less of control values) | L (L shows 50% or less of control values) | L (L shows 50% or less of control values)
CCc1cc(-c2cc(OC)ccc2Cl)c(-c2c(F)cccc2F)n(CC)c1=O [Compound 369] | H (H shows more than 50% of control values) | L (L shows 50% or less of control values) | H (H shows more than 50% of control values)
CCOc1cc(F)c(-c2c(-c3cc(OC)cc(OC)c3Cl)ccc(=O)n2C)c(F)c1 [Compound 247] | H (H shows more than 50% of control values) | H (H shows more than 50% of control values) | H (H shows more than 50% of control values)
COCOc1ccc(Cl)c(-c2ccc(=O)n(C)c2-c2c(F)cccc2F)c1 [Compound 239] | H (H shows more than 50% of control values) | H (H shows more than 50% of control values) | H (H shows more than 50% of control values)
COc1cc(OC)c(Cl)c(-c2ccc(=O)n(C)c2-c2c(F)cc(O)cc2F)c1 [Compound 249] | L (L shows 50% or less of control values) | L (L shows 50% or less of control values) | H (H shows more than 50% of control values)
CCn1c(-c2c(F)cccc2F)c(-c2cccc(C#N)c2)ccc1=O [Compound 341] | H (H shows more than 50% of control values) | L (L shows 50% or less of control values) | L (L shows 50% or less of control values)
CN1C(=O)CCC(c2cc(F)ccc2Cl)=C1c1c(F)cccc1F [Compound 357] | H (H shows more than 50% of control values) | H (H shows more than 50% of control values) | H (H shows more than 50% of control values)
CCn1c(-c2c(F)cccc2F)c(-c2ccc(C)cc2)cc(Br)c1=O [Compound 271] | H (H shows more than 50% of control values) | L (L shows 50% or less of control values) | H (H shows more than 50% of control values)
O=c1ccc(-c2cccc(Cl)c2Cl)c(-c2c(F)cccc2F)n1CC(F)F [Compound 366] | H (H shows more than 50% of control values) | L (L shows 50% or less of control values) | H (H shows more than 50% of control values)
C=CCOc1ccc(Cl)c(-c2ccc(=O)n(C)c2-c2c(F)cccc2F)c1 [Compound 314] | H (H shows more than 50% of control values) | L (L shows 50% or less of control values) | H (H shows more than 50% of control values)
Cc1ccc(C2=C(c3c(F)cccc3F)N(C)C(=O)CC2)cc1 [Compound 268] | H (H shows more than 50% of control values) | L (L shows 50% or less of control values) | L (L shows 50% or less of control values)
